From the supplement of paper PMC12462457 come the findings set out here.

This assay deals with OVCAR8. The experiment in a line: cell count relative to DMSO vehicle (fold change); OVCAR8 is a high-grade serous ovarian cancer line and CX-5461 an RNA polymerase I inhibitor; higher = more surviving senescent cells (less killing). Conditions: senescence inducer: CX-5461 3 µM 48 h, then 6 d recovery (CX senescent), exposure time 24 h.

The structures appear in SMILES notation. Counter-ions that a name gives are not always drawn. ± gives the standard deviation of the averaged measurements. This is one part of the list.

For the compound `NC(=O)c1ccc(-c2cc(-c3ccc([N+](=O)[O-])cc3)nc(-c3ccco3)c2)cc1`, the cell count is, setting by setting: (compound dose 1 µM) 1.08 ± 0.19; (compound dose 5 µM) 1.05 ± 0.11.
On the same counts, the results for `Nc1c(C(=O)NCc2ccc(C(=O)NCCCC3CCCCC3)cc2)cnn1-c1ccccc1` are 1.37 ± 0.29 and 1.29 ± 0.27.
With `CC(O)(P(=O)(O)O)P(=O)(O)O` [Etidronic acid], the cell count runs as follows: (compound dose 1 µM) 1.04 ± 0.068; (compound dose 5 µM) 1.04 ± 0.057.
In the case of `CC(C)Cc1ccc(C(C)C(=O)O)cc1` (stereo not drawn), the cell count (compound dose 1 µM) stood at 1.04 ± 0.016 and the cell count (compound dose 5 µM) turned out to be 1.06 ± 0.11.
As to `CN(C(=O)c1c(O)c2ccccc2n(C)c1=O)c1ccccc1` [Roquinimex], the cell count reads like this: (compound dose 1 µM) 1.1 ± 0.053; (compound dose 5 µM) 1.05 ± 0.076.
Consider `Cc1ccc(S(=O)(=O)Nc2cc(-c3ccc(C#N)s3)ccc2C)cc1`, for which the cell count is 1.18 ± 0.067 (compound dose 1 µM) and 1.08 ± 0.067 (compound dose 5 µM).
For `Cc1ncc(COP(=O)([O-])[O-])c(CN(CCN(CC(=O)O)Cc2c(COP(=O)([O-])O)cnc(C)c2O)CC(=O)O)c1O.[Mn].[Na+].[Na+].[Na+]`, the cell count is, setting by setting: (compound dose 1 µM) 1.01 ± 0.13; (compound dose 5 µM) 0.968 ± 0.076.
For `COc1ccc(C2=N[C@H](c3ccc(Cl)cc3)[C@H](c3ccc(Cl)cc3)N2C(=O)N2CCNC(=O)C2)c(OC(C)C)c1` [Nutlin-3b], the cell count reads like this: (compound dose 1 µM) 1.07 ± 0.21; (compound dose 5 µM) 1.02 ± 0.098.
For `O=c1c(O)c(-c2ccc(O)c(O)c2)oc2cc(O)cc(O)c12` [Quercetin], the cell count runs as follows: (compound dose 1 µM) 1.0675 ± 0.00071; (compound dose 5 µM) 1.11 ± 0.31.
On to `CC/C(=C(\c1ccccc1)c1ccc(OCCN(C)C)cc1)c1ccccc1` [Tamoxifen (Citrate)], for which the cell count is, setting by setting: (compound dose 1 µM) 1.1 ± 0.11; (compound dose 5 µM) 1.1 ± 0.14.
Turning to `CCc1oc2ccccc2c1C(=O)c1cc(Br)c(O)c(Br)c1`, the cell count was found to be 1.13 ± 0.052 (compound dose 1 µM) and 1.12 ± 0.013 (compound dose 5 µM).
The corresponding values for `Cn1cc(-c2ccc(S(=O)(=O)n3ccc(/C=C/C(=O)Nc4ccccc4N)c3)cc2)cn1` are 1.37 ± 0.13 and 1.23 ± 0.14.
On the same counts, the results for `CCN(CCCOc1ccc2c(Nc3cc(CC(=O)Nc4cccc(F)c4)[nH]n3)ncnc2c1)CCOP(=O)(O)O` [Barasertib] are 1.23 ± 0.14 and 1.2 ± 0.16.
On to `CCN(CCCOc1ccc2c(Nc3cc(CC(=O)Nc4cccc(F)c4)[nH]n3)ncnc2c1)CCOP(=O)(O)O` [Barasertib (AZD1152-HQPA)], for which the cell count came to 1.2 ± 0.04 (compound dose 1 µM) and 1.21 ± 0.018 (compound dose 5 µM).
In the case of `CC(C)c1cccc(C(C)C)c1NC(=O)NCC1(c2ccc(N(C)C)cc2)CCCC1` [Nevanimibe hydrochloride], the cell count was found to be 0.994 ± 0.034 (compound dose 1 µM) and 0.851 ± 0.016 (compound dose 5 µM).
`CN(C)CCCCC(=O)Nc1ccc(NC(=S)NC(=O)c2ccc(C(C)(C)C)cc2)cc1` [Tenovin-6]: the cell count runs as follows: (compound dose 1 µM) 1.02 ± 0.11; (compound dose 5 µM) 0.935 ± 0.016.
Take `COc1cc2ncnc(Nc3ccc(F)c(Cl)c3)c2cc1OCCCN1CCOCC1` [Gefitinib (ZD1839)]: the cell count runs as follows: (compound dose 1 µM) 1.06 ± 0.082; (compound dose 5 µM) 1.12 ± 0.12.
In the case of `CN[C@@H](C)C(=O)N[C@H](C(=O)N1CCC[C@H]1C(=O)Nc1sc(-c2ncco2)nc1-c1ccccc1)C1CCCCC1`, the cell count runs as follows: (compound dose 1 µM) 0.649 ± 0.1; (compound dose 5 µM) 0.676 ± 0.074.
In turn, `COC(=O)[C@]12CCC(C)(C)C[C@H]1[C@H]1C(=O)C=C3[C@@]4(C)C=C(C#N)C(=O)C(C)(C)[C@@H]4CC[C@@]3(C)[C@]1(C)CC2` [Bardoxolone methyl] yielded a cell count (compound dose 1 µM) of 0.899 ± 0.074 and a cell count (compound dose 5 µM) of 0.007 ± 0.0014.
In the case of `Cc1cc(Nc2nc(N[C@@H](C)c3ccc(F)cc3)c(C#N)cc2F)n[nH]1`, the cell count by setting is: (compound dose 1 µM) 1.21 ± 0.19; (compound dose 5 µM) 0.756 ± 0.12.
On the same counts, the results for `N[C@@H](CCC(=O)Nc1ccc([N+](=O)[O-])cc1)C(=O)O` [GPNA (hydrochloride)] are 0.899 ± 0.028 and 0.775 ± 0.22.
The corresponding values for `CC(C)c1ccc2c(c1)c(SC(C)(C)C)c(CC(C)(C)C(=O)O)n2Cc1ccc(Cl)cc1` are 1.09 ± 0.13 and 1.11 ± 0.11.
Regarding `CCN1CCN(Cc2ccc(-c3cc4c(N[C@H](C)c5ccccc5)ncnc4[nH]3)cc2)CC1`, the cell count by setting is: (compound dose 1 µM) 0.833 ± 0.0099; (compound dose 5 µM) 0.366 ± 0.061.
As to `Cc1nc(Nc2ncc(C(=O)Nc3c(C)cccc3Cl)s2)cc(N2CCN(CCO)CC2)n1` [Dasatinib], the cell count (compound dose 1 µM) amounted to 0.0155 ± 0.0064 and the cell count (compound dose 5 µM) turned out to be 0.0205 ± 0.0021.
As to `COc1cc(N2CCC(N3CCN(C)CC3)CC2)ccc1Nc1ncnc(Nc2ccccc2S(=O)(=O)C(C)C)n1`, the cell count came out at 1.17 ± 0.12 (compound dose 1 µM) and 1.07 ± 0.21 (compound dose 5 µM).
As for `CN1C(=O)[C@@H](NC(=O)c2n[nH]c(Cc3ccccc3)n2)COc2ccccc21`, the cell count by setting is: (compound dose 1 µM) 1.1 ± 0.076; (compound dose 5 µM) 1.15 ± 0.057.
On the same counts, the results for `Cc1cc(=O)oc2c(O)c(O)ccc12` are 1.04 ± 0.058 and 1.1 ± 0.079.
Turning to `CC(C)(C)c1ccc(C(O)CCCN2CCC(C(O)(c3ccccc3)c3ccccc3)CC2)cc1` (stereo not drawn), the cell count is, setting by setting: (compound dose 1 µM) 1.11 ± 0.16; (compound dose 5 µM) 0.844 ± 0.084.
On to `CC(C)(c1ccc(OCC(O)CO)cc1)c1ccc(OCC(O)CCl)cc1` (stereo not drawn), for which the cell count amounted to 1.04 ± 0.29 (compound dose 1 µM) and 1.05 ± 0.29 (compound dose 5 µM).
Take `CCOC(=O)c1[nH]c2cc(Cl)ccc2c1C(C(=O)NC(C)(C)C)N(C=O)Cc1ccc(Cl)cc1` (stereo not drawn): the cell count is, setting by setting: (compound dose 1 µM) 0.994 ± 0.12; (compound dose 5 µM) 1.11 ± 0.15.
As for `CNCCN(C)Cc1c[nH]nc1-c1ccc(O[C@H]2C[C@H](OCCC3CCOCC3)C2)cc1`, the cell count was 1.19 ± 0.4 (compound dose 1 µM) and 1.12 ± 0.34 (compound dose 5 µM).
`CN(C)CC#Cc1ccc(OCCCc2sc(N3CCc4cccc(C(=O)Nc5nc6ccccc6s5)c4C3)nc2C(=O)O)c(F)c1` showed a cell count (compound dose 1 µM) of 1.05 ± 0.2 and a cell count (compound dose 5 µM) of 1.07 ± 0.23.
On the same counts, the results for `C=C(C)[C@@H](CC=C(C)C)C[C@@]12C[C@@H](CC=C(C)C)C(C)(C)[C@@](CC=C(C)C)(C(=O)C(C(=O)c3ccc(O)c(O)c3)=C1O)C2=O` [Garcinol] are 1.14 ± 0.033 and 1.02 ± 0.14.
Regarding `COc1ccc(C[C@@H]2c3cc(Oc4cc(C[C@@H]5c6cc(OC)c(OC)cc6CCN5C)ccc4O)c(OC)cc3CCN2C)cc1` [Neferine], the cell count came to 1.26 ± 0.37 (compound dose 1 µM) and 1.24 ± 0.42 (compound dose 5 µM).
